The source gives no read counts; variants with many changes may rest on few reads.
B1: LINE1-mini (parent)
chain: GGCAGAGCUCAACACAGCGUGGCAAAGUGGCUGUGGCUAGACUGCC

Variants of: B1
Assay: self-cleavage, relative activity (ratio to wild type); higher = more cleavage; in vitro, sequencing; the parent is a self-cleaving ribozyme
C10A G22C C31U showed a self-cleavage of 0.
C10A G35C G36U gave a self-cleavage of 0.
Variant C10A G17U G33U C45U has a self-cleavage of 0.04.
C10A U34A C46A gave a self-cleavage of 0.18.
C10A G17A A25C U34C A41C gave a self-cleavage of 0.1.
C10A C23U G33U showed a self-cleavage of 0.03.
In the case of C10A C23U G35C G36A, the self-cleavage is reported as 0.02.
With C10G A11C C31G the self-cleavage was 0.02.
Variant C10A U28C U38C has a self-cleavage of 0.07.
For C10A G27C C31G G40C A41U U43G C45U, the self-cleavage was 0.01.
C10A C37A G40A gave a self-cleavage of 0.
Work on C10G A39C C45A yielded a self-cleavage of 0.04.
With C10G A16C U38C the self-cleavage was 0.01.
C10G A12G C15U G17U A24G G29A G40A C45A gave a self-cleavage of 0.
With C10A G19U C23U A25C the self-cleavage was 0.03.
With C10A G21U U34C G40C G44C the self-cleavage was 0.02.
C10G A12G C45A showed a self-cleavage of 0.01.
In the case of C10G A12C C18G G44A, the self-cleavage is reported as 0.03.
C10G C15A A26U G27C C45A C46A gave a self-cleavage of 0.01.
For C10A U20G G30C G44U, the self-cleavage was 0.04.
For C10A G19C A26U U32C, the self-cleavage was 0.03.
Variant C10A U20C C45A has a self-cleavage of 0.25.
C10A G19U G33C U43A showed a self-cleavage of 0.02.
Work on C10A G19U C23A G30U G33A yielded a self-cleavage of 0.03.
Variant C10G A24G G44U has a self-cleavage of 0.03.
Variant C10G A12C G30U C46U has a self-cleavage of 0.01.
In the case of C10A G17C G21U A25G C46U, the self-cleavage is reported as 0.03.
For C10A C45A C46G, the self-cleavage was 0.04.
With C10G A12C C31U C37U C42U the self-cleavage was 0.
In the case of C10A G19A G29U U34C, the self-cleavage is reported as 0.01.
For C10G A11U C13A, the self-cleavage was 0.
Variant C10A G17U G21U A25C C37A A41G has a self-cleavage of 0.01.
Variant C10A G17A A24U has a self-cleavage of 0.02.
Work on C10G C13U G27U C31U C37G yielded a self-cleavage of 0.
Variant C10A U20A G27U has a self-cleavage of 0.03.
C10A G19U C37U A41G G44C gave a self-cleavage of 0.01.
With C10A G27U C37U C46G the self-cleavage was 0.01.
With C10G A14C A39C C42U the self-cleavage was 0.
C10A G21C A24C A26G G30U gave a self-cleavage of 0.03.
Variant C10A G19C C23U C45A has a self-cleavage of 0.
C10A G17A C23U A25U showed a self-cleavage of 0.01.
C10A C37A C42U C46G showed a self-cleavage of 0.01.
In the case of C10G C15A A39C C45A, the self-cleavage is reported as 0.09.
In the case of C10G C13A G17U G35U, the self-cleavage is reported as 0.01.
Variant C10A G21U C23U C46A has a self-cleavage of 0.5.
For C10G A26C A41G, the self-cleavage was 0.02.
With C10A G19A U34A the self-cleavage was 0.06.
Work on C10G A14C C15G G40A yielded a self-cleavage of 0.04.
C10G A11U A14C G19A gave a self-cleavage of 0.02.
In the case of C10G A11C C13A G36A A39G, the self-cleavage is reported as 0.02.
Variant C10G A25C C31U A39U has a self-cleavage of 0.01.
With C10G A12C A24C G33C the self-cleavage was 0.01.
With C10A G30A C42A the self-cleavage was 0.06.
Variant C10A G21C C23G C45U has a self-cleavage of 0.05.
C10G A16U G21U G30U C37U C46A gave a self-cleavage of 0.
C10G A26U C42G showed a self-cleavage of 0.01.
In the case of C10A G19U G22U A25C U32A, the self-cleavage is reported as 0.01.
Work on C10A U34A G44C yielded a self-cleavage of 0.02.
Variant C10G A16C U34A has a self-cleavage of 0.01.
With C10A G36C G40A the self-cleavage was 0.06.
C10G A11C C13U C18A G36U showed a self-cleavage of 0.02.
For C10A G33A C42A G44C, the self-cleavage was 0.06.
Work on C10G C13A C15U G21U yielded a self-cleavage of 0.05.
For C10G A41U C42U G44U, the self-cleavage was 0.
C10A G17U C18A G40U showed a self-cleavage of 0.04.
Variant C10A G19A U28G A39U has a self-cleavage of 0.15.
For C10A G22C G29U U38C A39U, the self-cleavage was 0.18.
C10A G44A C45A gave a self-cleavage of 0.05.
In the case of C10G A11G G30A C37A, the self-cleavage is reported as 0.01.
With C10G A11U C18U the self-cleavage was 0.01.
Work on C10G A16C C23A yielded a self-cleavage of 0.03.
C10A G40U U43C showed a self-cleavage of 0.01.
For C10A G40U U43G, the self-cleavage was 0.02.
For C10A G30C C31A, the self-cleavage was 0.03.
With C10A C42A U43A the self-cleavage was 0.05.
C10A U20C U32A A39C showed a self-cleavage of 0.02.
Work on C10A G22A A26U A41C yielded a self-cleavage of 0.02.
C10A G17C C31A showed a self-cleavage of 0.05.
C10G A12C G35U G44U showed a self-cleavage of 0.01.
Work on C10G A11G U34A yielded a self-cleavage of 0.01.
Variant C10A C31A U32C A39C G44A has a self-cleavage of 0.
With C10G A24C U28G C46U the self-cleavage was 0.02.
C10G A12U G36A showed a self-cleavage of 0.02.
In the case of C10G A25U A39U U43A, the self-cleavage is reported as 0.
In the case of C10A G22C G33A, the self-cleavage is reported as 0.03.
C10A G22U G29C U32C gave a self-cleavage of 0.04.
Work on C10G C15A G21A C37G yielded a self-cleavage of 0.02.
Variant C10G A24U C31A G33U C45A has a self-cleavage of 0.
Variant C10A G30C G33U has a self-cleavage of 0.07.
Variant C10A G22U U28C has a self-cleavage of 0.12.
Work on C10A G17A A24G G40C yielded a self-cleavage of 0.02.
In the case of C10A G22A G33U C45A, the self-cleavage is reported as 0.02.
For C10A G21C C31G, the self-cleavage was 0.03.
For C10G A24U A39U, the self-cleavage was 0.24.
With C10G A16U G44C the self-cleavage was 0.03.
C10A G29A C42G gave a self-cleavage of 0.01.
For C10A G27U C46U, the self-cleavage was 0.04.
Variant C10G A12U C42U has a self-cleavage of 0.02.
Work on C10A G17A U38G yielded a self-cleavage of 0.11.
Work on C10A G29A G36U yielded a self-cleavage of 0.01.
C10A U28G G35A C46U showed a self-cleavage of 0.03.
C10G A14C U28G G36U C42G gave a self-cleavage of 0.03.
In the case of C10A G19C U20G G22C A39U, the self-cleavage is reported as 0.02.
C10A G33C U34A gave a self-cleavage of 0.02.
Variant C10G A12U C15U C31U has a self-cleavage of 0.02.
C10G A11C G30A C42U showed a self-cleavage of 0.01.
C10A G21A G30U showed a self-cleavage of 0.12.
With C10G C13A C18G G22U G33C the self-cleavage was 0.01.
C10A G40U C45U gave a self-cleavage of 0.02.
C10A G40U C45A showed a self-cleavage of 0.02.
C10A C31A A39G gave a self-cleavage of 0.01.
Variant C10G A12U A26G has a self-cleavage of 0.02.
With C10A C31A U38G A39G the self-cleavage was 0.02.
C10A G30U U43A G44C gave a self-cleavage of 0.03.
With C10G A12U C18U A26G C37A the self-cleavage was 0.
For C10A G22C G29C, the self-cleavage was 0.03.
In the case of C10A G36C U38G, the self-cleavage is reported as 0.01.
With C10G A11C G33A the self-cleavage was 0.05.
C10G A11U C13G C18A U20C G22U showed a self-cleavage of 0.02.
With C10A U20G U43A the self-cleavage was 0.
For C10A G19U C45A, the self-cleavage was 0.03.
Variant C10A U20A C23A G44A C45U has a self-cleavage of 0.
Work on C10A G21U A25C A26G yielded a self-cleavage of 0.07.
In the case of C10A G17A A24C A25C C37G U38C C46G, the self-cleavage is reported as 0.01.
With C10A G29A G30U C45U the self-cleavage was 0.03.
Work on C10G C13U C15U G19U U32A yielded a self-cleavage of 0.02.
C10A C23U G30A gave a self-cleavage of 0.04.
With C10G A25C C45U the self-cleavage was 0.02.
Work on C10A G19A G33U G44C yielded a self-cleavage of 0.01.
Variant C10A G27C G33A G35U has a self-cleavage of 0.02.
With C10A C23U A24C U28C the self-cleavage was 0.02.
Variant C10A C23G A25U has a self-cleavage of 0.12.
Work on C10G C15A U43A yielded a self-cleavage of 0.01.
For C10A G33C C45U, the self-cleavage was 0.01.
C10G A24G C31U gave a self-cleavage of 0.16.
C10A C42A G44A gave a self-cleavage of 0.01.
Work on C10A U34C C46U yielded a self-cleavage of 0.04.
C10G A16C U20G G30U G33U C42A showed a self-cleavage of 0.01.
Variant C10A U20G C31U has a self-cleavage of 0.02.
In the case of C10G A24C G40U, the self-cleavage is reported as 0.02.
C10A G19A C46U gave a self-cleavage of 0.05.
Work on C10A U20G G40U G44U yielded a self-cleavage of 0.01.
Work on C10G C15G C18U G35C yielded a self-cleavage of 0.01.
C10G A16G G19A A25G showed a self-cleavage of 0.05.
With C10G C13G G21U G33A U38C the self-cleavage was 0.02.
In the case of C10A U32A G33A, the self-cleavage is reported as 0.02.
In the case of C10G A11G U28C G36U, the self-cleavage is reported as 0.
For C10G A14U G21A U32A C45U, the self-cleavage was 0.
Work on C10A G33A G44U yielded a self-cleavage of 0.03.
With C10G C15G A16U U34C the self-cleavage was 0.01.
Work on C10A G19U G30A G44U yielded a self-cleavage of 0.06.
C10A G29U G44U gave a self-cleavage of 0.07.
Variant C10A C23U A25U G35U has a self-cleavage of 0.01.
Variant C10A G30C G44U has a self-cleavage of 0.08.
C10G A14C U20A showed a self-cleavage of 0.02.
With C10G A24U A26G C46U the self-cleavage was 0.2.
For C10A C23U C45A, the self-cleavage was 0.03.
With C10A C31U C42G the self-cleavage was 0.02.
For C10A U28A C45A, the self-cleavage was 0.01.
C10A C37G U43C C45A showed a self-cleavage of 0.
For C10G A16U G21U, the self-cleavage was 0.06.
For C10G C15G G21C U32G, the self-cleavage was 0.01.
In the case of C10A U20G G22C A41C G44A, the self-cleavage is reported as 0.01.
Variant C10G A25U U43A has a self-cleavage of 0.
Variant C10G C15A G22U C23U A24G A26U G29U has a self-cleavage of 0.03.
In the case of C10A G21U G27A, the self-cleavage is reported as 0.06.
Work on C10A G30U C46A yielded a self-cleavage of 0.03.
